Test results reported in article PMC11992160.
These are yes or no findings as the source states them, for the method shown. In cells and extracts the contact can be indirect. Where a sequence is shown, tags or fusion partners need not be part of it.

The chains behind the UniProt entries cited, without tags or fusion partners.
UniProt O94901: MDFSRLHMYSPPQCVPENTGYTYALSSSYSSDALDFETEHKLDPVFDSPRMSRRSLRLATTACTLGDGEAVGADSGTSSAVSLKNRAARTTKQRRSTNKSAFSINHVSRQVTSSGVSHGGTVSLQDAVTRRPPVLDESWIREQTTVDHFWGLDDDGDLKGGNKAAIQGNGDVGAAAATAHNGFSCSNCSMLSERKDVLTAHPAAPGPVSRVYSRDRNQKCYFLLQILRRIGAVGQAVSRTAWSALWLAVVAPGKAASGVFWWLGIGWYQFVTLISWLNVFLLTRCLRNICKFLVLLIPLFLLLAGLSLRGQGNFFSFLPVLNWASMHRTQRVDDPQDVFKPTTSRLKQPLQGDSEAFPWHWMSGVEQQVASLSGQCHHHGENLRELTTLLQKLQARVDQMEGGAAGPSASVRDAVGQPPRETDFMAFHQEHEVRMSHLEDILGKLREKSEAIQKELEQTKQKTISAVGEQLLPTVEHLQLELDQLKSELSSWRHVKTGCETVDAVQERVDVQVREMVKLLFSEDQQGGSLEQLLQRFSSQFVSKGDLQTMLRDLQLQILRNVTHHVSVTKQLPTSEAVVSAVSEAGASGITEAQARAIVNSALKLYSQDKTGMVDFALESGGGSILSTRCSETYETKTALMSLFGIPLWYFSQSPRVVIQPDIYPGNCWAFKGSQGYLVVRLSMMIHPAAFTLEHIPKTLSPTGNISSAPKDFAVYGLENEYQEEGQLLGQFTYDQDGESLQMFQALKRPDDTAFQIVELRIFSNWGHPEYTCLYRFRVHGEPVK

What was measured:
Test in all cases: co-IP; HeLa lysates in 1% DMNG, 50 mM Tris-HCl pH 7.5, 150 mM NaCl, 4 °C; anti-HA, anti-FLAG or anti-V5 magnetic beads 2 h; washes in 0.1% DMNG; immunoblot; parental cells, CTDNEP1 KO cells, or MAN1 KO cells expressing V5-MAN1 derivatives; without or with 1 h TGF-β3 (20 ng/ml) or BMP
[1] = target: T1, CTDNEP1-FLAG (CTDNEP1 fused to a triple FLAG epitope tag) (UniProt O95476)
T1 sequence: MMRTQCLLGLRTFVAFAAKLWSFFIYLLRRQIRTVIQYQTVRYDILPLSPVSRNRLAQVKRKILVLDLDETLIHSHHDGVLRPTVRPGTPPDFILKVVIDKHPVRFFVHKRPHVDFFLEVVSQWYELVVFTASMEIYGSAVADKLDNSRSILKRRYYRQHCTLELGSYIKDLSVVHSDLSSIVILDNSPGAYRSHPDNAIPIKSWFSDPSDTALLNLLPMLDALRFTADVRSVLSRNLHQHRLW

[2] = target: T2, V5-MAN1 (V5-tagged MAN1) (UniProt Q9Y2U8)
T2 sequence: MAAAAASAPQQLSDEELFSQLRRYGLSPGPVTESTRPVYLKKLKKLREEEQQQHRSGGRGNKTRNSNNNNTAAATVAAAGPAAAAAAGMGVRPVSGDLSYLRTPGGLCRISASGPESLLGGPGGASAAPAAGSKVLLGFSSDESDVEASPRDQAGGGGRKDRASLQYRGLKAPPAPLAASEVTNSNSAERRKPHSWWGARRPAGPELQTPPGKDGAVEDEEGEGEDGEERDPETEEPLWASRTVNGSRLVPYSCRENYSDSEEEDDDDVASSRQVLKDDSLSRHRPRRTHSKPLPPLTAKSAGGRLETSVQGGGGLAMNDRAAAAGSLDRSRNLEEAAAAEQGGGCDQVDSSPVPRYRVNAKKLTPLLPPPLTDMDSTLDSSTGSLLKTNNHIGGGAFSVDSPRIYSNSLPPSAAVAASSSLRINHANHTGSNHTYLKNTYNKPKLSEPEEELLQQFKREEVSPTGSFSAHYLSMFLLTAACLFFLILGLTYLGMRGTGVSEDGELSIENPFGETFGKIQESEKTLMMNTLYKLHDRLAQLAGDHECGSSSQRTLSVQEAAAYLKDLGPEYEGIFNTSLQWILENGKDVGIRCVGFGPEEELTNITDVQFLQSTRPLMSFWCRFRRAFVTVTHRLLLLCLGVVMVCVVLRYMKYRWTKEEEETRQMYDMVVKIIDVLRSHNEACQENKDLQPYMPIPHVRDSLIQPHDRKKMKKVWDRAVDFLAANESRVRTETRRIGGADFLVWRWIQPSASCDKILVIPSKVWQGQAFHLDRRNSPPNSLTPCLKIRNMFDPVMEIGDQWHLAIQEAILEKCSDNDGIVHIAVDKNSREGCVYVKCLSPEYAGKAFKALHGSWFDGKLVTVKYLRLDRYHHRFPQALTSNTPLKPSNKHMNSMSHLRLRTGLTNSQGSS

[3] = target: T3, NEP1R1-HA (NEP1R1 fused to an HA epitope tag) (UniProt Q8N9A8)
T3 sequence: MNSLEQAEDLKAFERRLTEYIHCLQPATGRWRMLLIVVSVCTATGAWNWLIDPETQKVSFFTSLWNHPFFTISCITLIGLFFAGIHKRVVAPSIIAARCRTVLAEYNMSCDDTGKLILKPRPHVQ

Measured: binding

SUN1 (from UniProt O94901 1-785)
no binding: [1] | [2] | [3]
